# Results taken from paper PMC4336329 (PLoS ONE, 2015).
# Hit rate of the full screen: of about 310,000 compounds, about 14,000 (4.5%) showed an effect of 50% or more. Effects have a minus sign here. The list shows a part of the results.
# Biological target: human ether-à-go-go-related gene (hERG) potassium channel (human, UniProt Q12809)
# Assay: primary screen, population patch clamp on CHO cells stably expressing hERG
# 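Also: peak tail current of the secondary pulse compared with the same well before compound.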
# human ether-à-go-go-related gene (hERG) potassium channel, sequence (Q12809 whole entry, looked up): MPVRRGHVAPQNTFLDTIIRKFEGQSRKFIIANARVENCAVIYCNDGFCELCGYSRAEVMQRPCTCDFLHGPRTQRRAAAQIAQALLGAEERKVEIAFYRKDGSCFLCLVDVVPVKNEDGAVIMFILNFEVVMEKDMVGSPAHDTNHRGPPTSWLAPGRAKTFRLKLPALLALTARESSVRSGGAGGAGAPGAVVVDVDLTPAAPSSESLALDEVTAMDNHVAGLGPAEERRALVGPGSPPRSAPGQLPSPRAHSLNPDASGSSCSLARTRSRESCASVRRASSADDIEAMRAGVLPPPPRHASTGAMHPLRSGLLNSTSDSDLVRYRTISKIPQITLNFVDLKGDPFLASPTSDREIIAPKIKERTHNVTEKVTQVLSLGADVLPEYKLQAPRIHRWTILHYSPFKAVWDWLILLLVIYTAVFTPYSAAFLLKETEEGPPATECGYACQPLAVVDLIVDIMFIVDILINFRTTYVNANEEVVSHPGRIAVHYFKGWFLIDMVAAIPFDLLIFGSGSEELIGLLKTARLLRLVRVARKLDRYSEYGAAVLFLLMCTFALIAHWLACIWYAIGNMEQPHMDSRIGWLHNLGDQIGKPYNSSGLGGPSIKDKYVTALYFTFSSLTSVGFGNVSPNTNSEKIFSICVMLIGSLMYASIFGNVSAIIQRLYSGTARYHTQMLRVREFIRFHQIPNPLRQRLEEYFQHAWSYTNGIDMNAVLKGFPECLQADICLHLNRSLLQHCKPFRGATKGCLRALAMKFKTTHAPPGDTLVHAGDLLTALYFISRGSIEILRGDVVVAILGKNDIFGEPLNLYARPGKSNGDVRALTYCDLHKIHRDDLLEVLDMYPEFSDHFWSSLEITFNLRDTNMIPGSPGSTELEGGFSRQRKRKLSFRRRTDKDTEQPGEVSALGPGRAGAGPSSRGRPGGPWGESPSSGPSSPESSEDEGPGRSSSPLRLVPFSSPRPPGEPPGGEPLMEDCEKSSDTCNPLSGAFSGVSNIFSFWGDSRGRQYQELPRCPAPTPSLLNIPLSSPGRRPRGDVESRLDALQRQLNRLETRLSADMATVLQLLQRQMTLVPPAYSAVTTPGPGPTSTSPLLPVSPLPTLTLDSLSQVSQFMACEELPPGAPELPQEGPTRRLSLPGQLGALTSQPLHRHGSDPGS
row,Structure (SMILES),"hERG current change (%, negative = inhibition) at 10uM [%]"
1,Nn1c(SCC(=O)NNC(=O)c2ccccc2)nnc1-c1ccccc1F,3.47
2,N#Cc1c(N)c(C(=O)c2ccccc2)n2ccccc12,10.7
3,COc1ccc(/C(O)=C2/C(=O)C(=O)N(CCN(C)C)C2c2ccccn2)cc1OC (centres unmarked),14.5
4,Cc1ccc(N(C(=O)Cc2c[nH]c3ccccc23)C(C(=O)NC2CCCCC2)c2ccco2)cc1 (centres unmarked),-6.34
5,O=C1CC(c2ccc(F)cc2)c2cc3c(cc2N1)CCC3 (centres unmarked),-5.48
6,Cc1ccc(S(=O)(=O)NCC(=O)OCC(=O)Nc2cccc(S(=O)(=O)NC3=NCCCCC3)c2)cc1C,-1.1
7,CC(C)OCCCNC(=O)c1cccs1,-9.39
8,Cc1ccn(CC(=O)N2N=C(C(F)F)CC2(O)C(F)F)n1 (centres unmarked),31
9,Cn1c(SCC(=O)NC2CCCCC2)nnc1-c1ccccc1O,-41.3
10,COc1ccc(C(CNC(=O)c2ccc(NS(=O)(=O)c3ccc(F)c(C)c3)cc2)N2CCOCC2)cc1 (centres unmarked),-20.8
11,Cc1cc(/C(=N/O)C(C)(C)NO)ccc1Cl,5.73
12,CC(C)(C)c1ccc(NC(=O)C2=CN3CCS(=O)(=O)N=C3C=C2)cc1,-20.6
13,CCOc1ccc(OCCC(=O)OCC(=O)Nc2cc(OCC)c(N3CCOCC3)cc2OCC)cc1,-15
14,COc1ccc(-c2c(C)nn(Cc3ccccc3)c2N)cc1,-8.57
15,O=C(Nc1ccc2nsnc2c1)c1cccs1,9.43
16,COc1ccc(/C=N/NC(=O)c2ccoc2C)cc1CN1CCN(c2ccc(F)cc2)CC1,-76.8
17,Cc1cc(NC(=O)C2CCN(S(=O)(=O)c3c(C)noc3C)CC2)ccc1Br,19.2
18,CC/C(=N/Nc1ccccc1)c1cnnc(SC)n1,-0.704
19,C/C(=N/NC(=O)c1cccs1)c1ccco1,10.5
20,CCOC(=O)c1c(NC(=O)CCCC(=O)O)sc2c1CCC2,9.54
21,O=C1CC(C(=O)NCc2ccccc2)C2(CCCC2)O1 (centres unmarked),1
22,O=C(CSc1nnc(CNC(=O)c2ccc(F)cc2)o1)NCc1ccc(F)cc1,-9.46
23,CCc1nc2ccc(C(=O)NCc3ccccc3)cc2nc1CC,36.5

row,Structure (SMILES),"hERG current change (%, negative = inhibition) at 10uM [%]"
1,CCC(=Nc1ccc2c(c1)CCC2)c1c(O)n(C)c(=O)n(C)c1=O,18.2
2,O=C(CC(O)(c1ccccc1)C(F)(F)C(F)F)c1cccs1 (centres unmarked),0.446
3,CCCCN(C(=O)c1ccc2ccccc2c1)c1c(N)n(CCCC)c(=O)[nH]c1=O,8.11
4,COC(=O)Cn1cc(C(=O)C(C)(C)C)c2ccccc21,0.25
5,CCc1ccc(NC(=O)c2cnc(SC)nc2C)cc1,1.07
6,CC1=CC(C)(C)N2C(=O)C3(C(C#N)=C(N)Oc4cc(O)ccc43)c3c(C)c(C)cc1c32 (centres unmarked),-15.8
7,Cc1c(/C=N/N=C2\CCC3C4CCc5cc(O)ccc5C4CCC23C)cnn1C (centres unmarked),3.75
8,CCCS(=O)(=O)c1ccc(COC(=O)c2cccc(NC(=O)C(C)C)c2)cc1,-36
9,CCOC(=O)N1CCN(CCC(=O)c2ccc(OC)cc2)CC1.Cl,-18.2
10,CCSc1nnc(Cc2cc(=O)[nH]c(=O)[nH]2)n1-c1cccc(C)c1,22.3
11,C=CCNC(=O)c1cc(-c2ccc3c(c2)OCO3)on1,9.19
12,O=C(CN(Cc1ccccc1)C(=O)c1cc2c(s1)CCC2)NCc1cccs1,-7.13
13,CC(=O)c1cccc(S(=O)(=O)NCCC(=O)NC2CCCCCC2)c1,-5.28
14,CC(C)c1ccc(N=Nc2c(O)[nH]c(=O)[nH]c2=O)cc1,5.66
15,CN1CCN(C(=O)CCc2ncc(C(F)(F)F)cc2Cl)CC1,11.7
16,COCCNc1cc(C)c(C#N)c2nc3ccccc3n12,-35.5
17,O=C(Nc1nnc(-c2ccccn2)o1)c1cccc(Br)c1,7.26
18,CC(/C=C1\SC(=S)N(CCC(=O)Nc2ccc(O)cc2)C1=O)=C\c1ccccc1,20.6
19,CCCCN1C(N)=NC[C@H]1Cc1ccc(O)cc1,13.5
20,COc1cc2c(cc1NC(=O)/C=C/c1ccccc1)oc1ccccc12,18.8
21,COc1ccccc1Nc1nc(N2CCOCC2)nc(N2CCOCC2)n1.Cl,16
22,Fc1ccc(NC(=S)Nc2cccnc2)cc1Cl,4.53
23,COc1cc(C(=O)OCC(=O)N(CC(C)C)C2CCS(=O)(=O)C2)cc(OC)c1C (centres unmarked),-5.8

row,Structure (SMILES),"hERG current change (%, negative = inhibition) at 10uM [%]"
1,CC(c1ccccc1)n1cc(C(=O)NCc2ccncc2)nn1 (centres unmarked),-5.45
2,O=C1/C(=C/c2ccc(F)cc2)SC(=S)N1CC(=O)N1CCCCC1c1cccnc1 (centres unmarked),-6.82
3,CCN(Cc1ccccc1)S(=O)(=O)c1cn(C)cn1,12.6
4,O=S(=O)(c1cccc(NC(=S)N2CCN(c3ccccc3)CC2)c1)C(F)F,-0.984
5,O=C(Oc1ccc([N+](=O)[O-])cc1)N1CCC(N2CCCCC2)CC1,-65.4
6,CC(=O)c1cc(F)c(N2CCN(C(=O)COc3ccccc3F)CC2)cc1C,-7.84
7,COc1ccc(NC(=S)NCC2CCN(c3ccc(OC)cc3)C2)cc1 (centres unmarked),-6.31
8,CCCN(CCO)C1CCN(CCc2ccccc2)CC1,7.14
9,S=C1NCCc2ccc(Cl)cc2C1c1ccccc1Cl (centres unmarked),16.7
10,CCn1c(Cn2nnc(-c3ccccc3)n2)nnc1SCc1ccc(Cl)c(Cl)c1,-1.39
11,O=C(Nc1ccc(-c2ccccc2)cc1)c1ccc2c(c1)S(=O)(=O)c1ccccc1C2=O,7.7
12,CC(C)(C)NC(=O)Cn1nnc(-c2cccs2)n1,-4.07
13,O=c1c2c(ncn1Cc1ccccc1)nc1n2CCC1,12.8
14,C=C(C)CN(CC)C(=O)CSc1ccc(S(=O)(=O)N2CCN(Cc3ccccc3)CC2)cn1,-30.4
15,O=C(NC1CCCCC1)N1CCN(C2CCCCC2)CC1,2.63
16,Nc1ccc(Nc2nc(-c3cc4ccccc4oc3=O)cs2)cc1,-2.98
17,CCOC(=O)c1ccc(-n2c(CN(CC)CC)nc3ccc([N+](=O)[O-])cc3c2=O)cc1,2.03
18,Cc1ccc(CNC(=O)C(=O)NCCC2CCCCN2S(=O)(=O)c2ccc(C)cc2)cc1 (centres unmarked),-11.2
19,CCOC(=O)C1CCN(C(=O)COc2ccc(S(=O)(=O)NC(C)C)cc2Cl)CC1,-15.9
20,O=C(c1ccc2c(c1)C(=O)N(Cc1ccco1)C2O)N1CCOCC1 (centres unmarked),17.8
21,COc1ccc(Br)cc1CNCCc1cccc(Cl)c1.O=C(O)C(=O)O,-44.7
22,O=C(CSc1nncs1)Nc1ccc(Cl)cc1C(F)(F)F,6.67
23,CCCCCCCCCCCCN1C(=O)CSC1c1cccnc1 (centres unmarked),7.01

row,Structure (SMILES),"hERG current change (%, negative = inhibition) at 10uM [%]"
1,C=CCNC(=O)CC(=O)N/N=C/c1cccc(C)c1,-0.0695
2,CC(=O)COc1ccc2c(-c3ccccc3)cc(=O)oc2c1C,9.95
3,CCOC(=O)C1=C2SCC(=O)N2C(N)=C(C#N)C1,-4.36
4,N#Cc1ccccc1S(=O)(=O)N1CCN(C(=O)c2cn(-c3ccccc3)nc2-c2cccnc2)CC1,-48
5,CC1Cc2ccccc2N1S(=O)(=O)c1cccc(C(=O)N2CC(=O)Nc3ccccc32)c1 (centres unmarked),-4.44
6,Cc1ccc(C)c(NC(=O)CN(C)C(=O)c2oc3c(Cl)cccc3c2C)c1,-24.4
7,Cl.Fc1ccc(Cn2nnnc2C(c2ccc(Cl)cc2)N2CCSCC2)cc1 (centres unmarked),-1.72
8,O=C1c2ccccc2C(=O)N1Cc1cc(-c2ccc(Cl)cc2)no1,7.2
9,Cc1ccc(OCCn2cccn2)c(C)c1,7.47
10,Cc1ccc(OCc2cc(C(=O)N3CCc4sccc4C3)no2)cc1C,-0.923
11,Cc1ccc(C(=O)NCC(=O)OCC(=O)c2ccc(Cl)s2)cc1,10.6
12,COc1ccccc1N(CC(=O)NCCSc1ccccc1)S(C)(=O)=O,-16.3
13,CCOc1ccc(C(C)=O)cc1COC(=O)CCc1cc(OC)c(OC)c(OC)c1,8.25
14,COc1cc(Cl)ccc1OCc1cc(C(=O)N(C)C2CCOC2)no1 (centres unmarked),5.43
15,NC(=O)NC(=O)CN1C(=O)NC2(CCOc3ccccc32)C1=O (centres unmarked),18.1
16,COc1cc(Cl)cc(CN2CCC(CCC(=O)NC3CC3)CC2)c1OC,-20.8
17,Cc1ccc(C)c(S(=O)(=O)N2CCN(C(=O)c3cccnc3)CC2)c1,4.07
18,CCc1ccc(Nc2nnc(SCC(=O)NC(=O)c3cccn3C)s2)cc1,18.9
19,CN(C)c1ccc(/C=C(/NC(=O)c2ccccc2)C(=O)NCCN2CCOCC2)cc1,4.15
20,CC1CCN(C(=O)CSc2nnc(CNC(=O)c3ccc(F)cc3)o2)CC1,-4.47
